Laboratory results: the supplement of paper PMC12217912
Some of the results follow. The full chains were built here from the parent and the listed change. Inactive controls read about 0.05.

B1: TEV protease; numbered along this chain (parent)
chain: MGESLFKGPRDYNPISSSICHLTNESDGHTTSLYGIGFGPFIITNKHLFRRNNGTLVVQSLHGVFKVKDTTTLQQHLVDGRDMIIIRMPKDFPPFPQKLKFREPQREERICLVTTNFQTKSMSSMVSDTSCTFPSGDGIFWKHWIQTKDGQCGSPLVSTRDGFIVGIHSASNFTNTNNYFTSVPKNFMELLTNQEAQQWVSGWRLNADSVLWGGHKVFMVKPEEPFQPVKEATQL

Variants of: B1
Experiment: raw area under fraction-flipped curve 0-4 h after induction (AUC4h, not background-subtracted), DNA-recorder readout of cleavage of the substrate (dimensionless); higher = more cleavage of the substrate by the protease variant
Settings: temperature: 34 °C; time window: 0-4 h after rhamnose induction
Description: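 In vivo DNA recorder in E. coli TOP10(DE3) ΔrhaA at 34 °C. Each TEVp single-site mutant (parent TEVp 0) is paired with a single-site variant of the 7-mer TEVs (canonical ENLYFQ|S). The substrate sits between flexible linkers in a Bxb1-sfGFP-TEVs-SsrA fusion, so cleavage stabilises Bxb1 and speeds flipping of a recombination array, read by NGS. The value is the raw area under the fraction-flipped curve over 0-4 h after rhamnose induction (AUC4h), with ≥20 reads per time point. It is not background-subtracted; inactive controls average about 0.047.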
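Further: Bxb1 expression induced with 0.2% (w/v) L-rhamnose at OD600 near 0.5, cultures sampled hourly, flipped fraction per protease–substrate barcode pair counted by paired-end Illumina sequencing.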

Variant	area with substrate ENLYFQA	area with substrate ENLYFQD	area with substrate ENLYFQF	area with substrate ENLYFQH	area with substrate ENLYFQI	area with substrate ENLYFQL	area with substrate ENLYFQM	area with substrate ENLYFQN	area with substrate ENLYFQP	area with substrate ENLYFQQ	area with substrate ENLYFQR	area with substrate ENLYFQS	area with substrate ENLYFQT	area with substrate ENLYFQV	area with substrate ENLYFQW	area with substrate ENLYFQY	area with substrate ENLYFQG	area with substrate ENLYFQK	area with substrate ENLYFQC	area with substrate ENLYFQE
MGESLFKGPRDYNPISSSICHLTNESDGHTTSLYGIGFGPFIITNKHLFRRNNGTLVVQSLHGVFKVKDTTTLQQHLVDGRDMIIIRMPKDFPPFPQKLKFREPQREERICLVTTNFQTKSMSSMVSDTSCTFPSGDGIFWKHWIQTKDGQCGSPLVSTRDGFIVGIHSASNFTNTNNYFTSVPKNFMELLTNQEAQQWVSGWRLNADSVMWGGHKVFMVKPEEPFQPVKEATQL [L211M]	0.115	0.0837	0.102	0.118	0.0487	0.0643	0.0727	0.0594	0.0544	0.0986	0.0649	0.106	0.0691	0.0711	0.0675	0.0721	–	–	–	–
MGESLFKGPRDYNPISSSICHLTNESDGHTTSLYGIGFGPFIITNKHLFRRNNGTLVVQSLHGVFKVKDTTTLQQHLVDGRDMIIIRMPKDFPPFPQKLKFREPQREERICLVTTNFQTKSMSSMVSDTSCTFPSGDGIFWKHWIQTKDGQCGSPLVSTRDGFIVGIHSASNFTNTNNYFTSVPKNFMELLTNQEAQQWVSGWRLNADSVLGGGHKVFMVKPEEPFQPVKEATQL [W212G]	0.0666	0.0658	–	0.0571	0.0582	–	–	–	0.0811	0.0605	–	0.0714	0.0762	0.0597	0.0607	0.0596	0.157	0.0546	–	–
MGESLFKGPRDYNPISSSICHLTNESDGHTTSLYGIGFGPFIITNKHLFRRNNGTLVVQSLHGVFKVKDTTTLQQHLVDGRDMIIIRMPKDFPPFPQKLKFREPQREERICLVTTNFQTKSMSSMVSDTSCTFPSGDGIFWKHWIQTKDGQCGSPLVSTRDGFIVGIHSASNFTNTNNYFTSVPKNFMELLTNQEAQQWVSGWRLNADSVLWRGHKVFMVKPEEPFQPVKEATQL [G213R]	0.0597	0.0466	–	0.0566	–	0.0592	0.0626	0.0645	0.0764	0.0616	0.0523	0.0611	0.0629	0.0594	0.0543	0.0545	0.0725	0.0604	0.0557	0.0819
MGESLFKGPRDYNPISSSICHLTNESDGHTTSLYGIGFGPFIITNKHLFRRNNGTLVVQSLHGVFKVKDTTTLQQHLVDGRDMIIIRMPKDFPPFPQKLKFREPQREERICLVTTNFQTKSMSSMVSDTSCTFPSGDGIFWKHWIQTKDGQCGSPLVSTRDGFIVGIHSASNFTNTNNYFTSVPKNFMELLTNQEAQQWVSGWRLNADSVLWGDHKVFMVKPEEPFQPVKEATQL [G214D]	0.0919	–	0.0594	–	0.0644	–	–	0.0583	0.0494	–	0.0522	0.0856	0.0515	–	0.0674	–	–	–	0.092	–
MGESLFKGPRDYNPISSSICHLTNESDGHTTSLYGIGFGPFIITNKHLFRRNNGTLVVQSLHGVFKVKDTTTLQQHLVDGRDMIIIRMPKDFPPFPQKLKFREPQREERICLVTTNFQTKSMSSMVSDTSCTFPSGDGIFWKHWIQTKDGQCGSPLVSTRDGFIVGIHSASNFTNTNNYFTSVPKNFMELLTNQEAQQWVSGWRLNADSVLWGGHKVNMVKPEEPFQPVKEATQL [F218N]	0.0625	–	0.0559	0.0726	–	–	0.0654	0.0527	–	–	–	0.0912	–	0.0547	0.0617	–	0.0747	–	0.0879	0.0736
MGESLFKGPRDYNPISSSICHLTNESDGHTTSLYGIGFGPFIITNKHLFRRNNGTLVVQSLHGVFKVKDTTTLQQHLVDGRDMIIIRMPKDFPPFPQKLKFREPQREERICLVTTNFQTKSMSSMVSDTSCTFPSGDGIFWKHWIQTKDGQCGSPLVSTRDGFIVGIHSASNFTNTNNYFTSVPKNFMELLTNQEAQQWVSGWRLNADSVLWGGHKVFTVKPEEPFQPVKEATQL [M219T]	0.122	–	–	0.0918	–	0.0682	0.0714	0.0836	0.0538	–	0.0558	0.104	0.0606	–	–	0.0855	–	–	0.105	–
MGESLFKGPRDYNPISSSICHLTNESDGHTTSLYGIGFGPFIITNKHLFRRNNGTLVVQSLHGVFKVKDTTTLQQHLVDGRDMIIIRMPKDFPPFPQKLKFREPQREERICLVTTNFQTKSMSSMVSDTSCTFPSGDGIFWKHWIQTKDGQCGSPLVSTRDGFIVGIHSASNFTNTNNYFTSVPKNFMELLTNQEAQQWVSGWRLNADSVLWGGHKVFMEKPEEPFQPVKEATQL [V220E]	0.146	–	0.0475	0.0858	–	0.0604	0.0773	0.0639	0.0557	–	0.0647	0.11	–	0.0565	0.0552	0.0508	0.109	0.0607	0.108	–
MGESLFKGPRDYNPISSSICHLTNESDGHTTSLYGIGFGPFIITNKHLFRRNNGTLVVQSLHGVFKVKDTTTLQQHLVDGRDMIIIRMPKDFPPFPQKLKFREPQREERICLVTTNFQTKSMSSMVSDTSCTFPSGDGIFWKHWIQTKDGQCGSPLVSTRDGFIVGIHSASNFTNTNNYFTSVPKNFMELLTNQEAQQWVSGWRLNADSVLWGGHKVFMGKPEEPFQPVKEATQL [V220G]	0.135	0.0729	0.0911	0.0989	0.0739	0.0653	–	0.0955	0.0502	0.082	0.067	0.118	0.0558	–	0.0637	0.075	0.108	0.0611	0.112	–
MGESLFKGPRDYNPISSSICHLTNESDGHTTSLYGIGFGPFIITNKHLFRRNNGTLVVQSLHGVFKVKDTTTLQQHLVDGRDMIIIRMPKDFPPFPQKLKFREPQREERICLVTTNFQTKSMSSMVSDTSCTFPSGDGIFWKHWIQTKDGQCGSPLVSTRDGFIVGIHSASNFTNTNNYFTSVPKNFMELLTNQEAQQWVSGWRLNADSVLWGGHKVFMVLPEEPFQPVKEATQL [K221L]	0.0834	–	–	0.079	0.0547	0.0547	0.0804	0.0724	–	–	0.0531	0.0967	0.0538	–	0.059	–	0.0588	0.0543	0.114	–
